In all, about 310,000 compounds went through this assay and about 14,000 (4.5%) showed an effect of 50% or more. Effects have a minus sign here. The list shows a part of the results.
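Further: peak tail current of the secondary pulse compared with the same well before compound.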

The target of this test is human ether-à-go-go-related gene (hERG) potassium channel (human, UniProt Q12809). Description: primary screen, population patch clamp on CHO cells stably expressing hERG.
Chain of human ether-à-go-go-related gene (hERG) potassium channel (Q12809 whole entry, looked up): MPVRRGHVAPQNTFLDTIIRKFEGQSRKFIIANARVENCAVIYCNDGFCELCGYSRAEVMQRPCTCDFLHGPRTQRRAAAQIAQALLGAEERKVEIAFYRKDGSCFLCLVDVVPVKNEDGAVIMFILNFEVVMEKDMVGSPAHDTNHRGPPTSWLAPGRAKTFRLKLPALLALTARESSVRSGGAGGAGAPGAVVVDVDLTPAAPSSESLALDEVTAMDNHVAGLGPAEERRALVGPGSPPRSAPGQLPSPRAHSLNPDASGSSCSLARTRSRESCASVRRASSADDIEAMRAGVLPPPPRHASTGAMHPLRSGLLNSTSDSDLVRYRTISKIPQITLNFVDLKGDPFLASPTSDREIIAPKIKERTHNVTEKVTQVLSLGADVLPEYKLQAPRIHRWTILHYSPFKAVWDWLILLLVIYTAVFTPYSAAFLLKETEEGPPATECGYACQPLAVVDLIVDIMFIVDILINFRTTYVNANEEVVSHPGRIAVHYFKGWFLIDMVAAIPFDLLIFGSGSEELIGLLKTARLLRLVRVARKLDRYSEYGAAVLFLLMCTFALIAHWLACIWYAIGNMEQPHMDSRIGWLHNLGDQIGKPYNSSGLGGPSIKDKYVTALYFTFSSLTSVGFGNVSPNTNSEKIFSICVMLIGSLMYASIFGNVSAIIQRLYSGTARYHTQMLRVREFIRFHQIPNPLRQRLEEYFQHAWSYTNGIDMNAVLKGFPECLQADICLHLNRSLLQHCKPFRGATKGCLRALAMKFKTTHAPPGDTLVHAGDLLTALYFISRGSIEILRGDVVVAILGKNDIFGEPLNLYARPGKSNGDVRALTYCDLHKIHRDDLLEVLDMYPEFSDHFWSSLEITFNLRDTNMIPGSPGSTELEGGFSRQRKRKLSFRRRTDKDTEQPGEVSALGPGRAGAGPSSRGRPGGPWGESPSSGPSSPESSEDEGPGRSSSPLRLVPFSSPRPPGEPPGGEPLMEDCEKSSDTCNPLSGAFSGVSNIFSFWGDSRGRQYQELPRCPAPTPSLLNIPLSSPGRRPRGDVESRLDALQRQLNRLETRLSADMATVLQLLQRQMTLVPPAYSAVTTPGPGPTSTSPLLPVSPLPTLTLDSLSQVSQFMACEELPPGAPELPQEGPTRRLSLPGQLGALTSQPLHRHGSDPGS
For `Cc1ccc(S(=O)(=O)CCC(=O)OCC(=O)c2cc(C)ccc2C)cc1`, the “hERG current change (%, negative = inhibition) at 10uM” value is reported as 5.74%. `O=C(CN1C(=O)COc2ccc(S(=O)(=O)N3CCCCC3)cc21)NCc1ccc(F)cc1`: the “hERG current change (%, negative = inhibition) at 10uM” value was found to be 30.8%. Regarding `CN(C)CCOC(=O)CC12CC3CC(C1)CC(CC(=O)OCCN(C)C)(C3)C2.Cl`, the “hERG current change (%, negative = inhibition) at 10uM” value came out at 12.4%.

As to `O=C(Nc1ccc(Br)c(Cl)c1)c1ccco1`, the “hERG current change (%, negative = inhibition) at 10uM” value was -5.17%. For `CC(C)c1ccc(S(=O)(=O)N2CCN(C(=O)c3ccc(N4CCCC4)c([N+](=O)[O-])c3)CC2)cc1`, the “hERG current change (%, negative = inhibition) at 10uM” value is recorded as -55.1%.

For the compound `O=[N+]([O-])c1ccc(O)c(/C=N/Nc2ncnc3c2cnn3-c2ccccc2)c1`, the “hERG current change (%, negative = inhibition) at 10uM” value was 22.7%. Consider `O=C(CSc1nnc(C2CC2)n1C1CC1)c1ccc(F)cc1`, for which the “hERG current change (%, negative = inhibition) at 10uM” value is given as 0.657%. Under `COc1ccc(N2CCN(C(=O)CC(C)S(=O)(=O)c3ccc4c(c3)NC(=O)CO4)CC2)cc1` (stereo not drawn) stands -8.12%; under `O=C(Oc1ccccc1F)c1ccc2c(=O)n3c(nc2c1)CCC3`, -15.5%.

`COCCNC(=O)C1CC(c2ccc(F)cc2)=NO1` (stereo not drawn): the “hERG current change (%, negative = inhibition) at 10uM” value is listed as 9.3%.

Regarding `CN(Cc1nc(-c2ccc(Cl)cc2)no1)C(=O)c1ccco1`, the “hERG current change (%, negative = inhibition) at 10uM” value is -8.47%. Regarding `O=C(NCc1cc(C(F)(F)F)cc(C(F)(F)F)c1)C1CC(c2cccc(F)c2)=NO1` (stereo not drawn), the “hERG current change (%, negative = inhibition) at 10uM” value is given as -3.05%. Take `CN1CCN(CC(=O)O)CC1`: the “hERG current change (%, negative = inhibition) at 10uM” value was 9.84%. For `Cc1ccccc1NS(=O)(=O)c1ccc(OCC(=O)N2CCCC2)cc1`, the “hERG current change (%, negative = inhibition) at 10uM” value is -6.57%.

Turning to `O=C(Nc1ccc(Oc2ccc(C(F)(F)F)cn2)c(Cl)c1)C1CC1`, the “hERG current change (%, negative = inhibition) at 10uM” value worked out at 18.6%. Consider `Cc1cc(C)c(NC(=O)COC(=O)c2c(C)noc2C)c(Cl)c1`, for which the “hERG current change (%, negative = inhibition) at 10uM” value was 13.8%. As to `Cc1nc2c(C(=O)N3CCCCC3)cnn2c(C)c1Cc1ccccc1F`, the “hERG current change (%, negative = inhibition) at 10uM” value was -32.1%. Turning to `COc1cccc(CNC(=O)CSc2nc(=O)n(Cc3ccncc3)c3c2CCC3)c1`, the “hERG current change (%, negative = inhibition) at 10uM” value is on record as -2.74%.

For `CC(C)c1ccc(/C=N/NC(=O)c2cc(-c3cccc([N+](=O)[O-])c3)n[nH]2)cc1`, the “hERG current change (%, negative = inhibition) at 10uM” value came to 11%. On to `O=C1C(Nc2ccccc2)=C(N2CCCCC2)C(=O)c2ccccc21`, for which the “hERG current change (%, negative = inhibition) at 10uM” value is recorded as 1.85%. To `CC(=O)Nc1ccc(NC(=O)C(C)OC(=O)c2ccccc2C(=O)c2ccc(Cl)c([N+](=O)[O-])c2)cc1` (stereo not drawn) belongs -7.67%; to `CN(C)/C=C/C(=O)c1ccc(OCCN(C)c2ccccn2)cc1`, 3.55%; to `Cn1c2ccccc2c2cnn(CC(=O)Nc3ccc(F)cc3F)c(=O)c21`, -4.39%.

Turning to `Cc1nc2nc(SCC(=O)N3CCOCC3)nn2c(C)c1Cc1c(F)cccc1Cl`, the “hERG current change (%, negative = inhibition) at 10uM” value is listed as -38.3%. Regarding `COc1ccc([N+](=O)[O-])cc1NC1CCCCC1.O=C(O)C(=O)O`, the “hERG current change (%, negative = inhibition) at 10uM” value is recorded as -2.1%. As to `Cc1cc(C)cc(N(CC(=O)N2CC=C(c3ccccc3)CC2)S(=O)(=O)c2c(C)noc2C)c1`, the “hERG current change (%, negative = inhibition) at 10uM” value was 3.05%. As for `Cc1ccc(NC(=O)c2ccc3ccccc3n2)cc1S(=O)(=O)N(C)C`, the “hERG current change (%, negative = inhibition) at 10uM” value turned out to be 6.21%. Take `N#CC1(NC(=O)COc2cccnc2[N+](=O)[O-])CCCCC1`: the “hERG current change (%, negative = inhibition) at 10uM” value is recorded as 7.48%. With `Cc1nc(C)c(C(=O)N2CCCC(CCC(=O)NCc3ccc(F)c(F)c3)C2)s1` (stereo not drawn), the “hERG current change (%, negative = inhibition) at 10uM” value stood at 2.68%. Under `Cc1ccc(NC(=O)C2CCN(S(=O)(=O)c3ccc4c(c3)C(C)(C)C(=O)N4C)CC2)c(C)c1` stands 19.2%. Regarding `O=C(N/N=C/c1ccccn1)c1c[nH]c2ccccc12`, the “hERG current change (%, negative = inhibition) at 10uM” value is recorded as 12.7%. Under `O=C(Cc1ccccc1F)NC1CCCc2ccccc21` (stereo not drawn) stands 10.8%. For the compound `Cn1c(CCN2CCCCC2)nc2cc(NC(=O)COc3ccc(Cl)cc3)ccc21`, the “hERG current change (%, negative = inhibition) at 10uM” value was -84.8%. Take `Cc1nc2ccccc2cc1C(=O)NCc1ccccc1`: the “hERG current change (%, negative = inhibition) at 10uM” value turned out to be 2.49%. Turning to `COc1cc(NC(=O)C2CCN(S(=O)(=O)c3cccs3)CC2)cc(OC)c1`, the “hERG current change (%, negative = inhibition) at 10uM” value is reported as 1.97%. For the compound `O=C(Nc1ccc(Cc2ccncc2)cc1)c1ccco1`, the “hERG current change (%, negative = inhibition) at 10uM” value is on record as -12.3%. In the case of `CC1C(=O)Nc2ccc(S(=O)(=O)NCc3ccc(Cl)cc3)cc2NC1=O` (stereo not drawn), the “hERG current change (%, negative = inhibition) at 10uM” value is 16.8%.

On to `Cn1c2ccc(F)cc2c2nnc(SCC(=O)Nc3cccc(O)c3)nc21`, for which the “hERG current change (%, negative = inhibition) at 10uM” value was -19%. Consider `Cc1nccn1CC(=O)N/N=C/c1ccc(O)c(O)c1`, for which the “hERG current change (%, negative = inhibition) at 10uM” value was 2.01%.

With `CCOc1cc(CN2CCC(CO)(Cc3cccc(C(F)(F)F)c3)CC2)ccc1OC`, the “hERG current change (%, negative = inhibition) at 10uM” value is -76.6%. Consider `CC(C)(O)C#Cc1ccc(C(=O)N2CCCC2C(=O)O)s1` (stereo not drawn), for which the “hERG current change (%, negative = inhibition) at 10uM” value is on record as 16.9%. As to `C=CCOc1c(Br)cc(/C=C2\SC(=Nc3ccccc3)NC2=O)cc1OC`, the “hERG current change (%, negative = inhibition) at 10uM” value is on record as 10.2%.

For the compound `O=c1ccc2cc(S(=O)(=O)NCCCc3ccccc3)ccc2[nH]1`, the “hERG current change (%, negative = inhibition) at 10uM” value is on record as 2.26%. As to `NC(=S)N/N=C/c1ccccc1OC(=O)c1cc2ccccc2oc1=O`, the “hERG current change (%, negative = inhibition) at 10uM” value amounted to 28.3%. In the case of `Cc1cc(C)cc(N2CC(C)Cn3c2nc2c3c(=O)[nH]c(=O)n2C)c1` (stereo not drawn), the “hERG current change (%, negative = inhibition) at 10uM” value was -2.03%. For the compound `O=[N+]([O-])c1ccc(Oc2cccc(F)c2)c2ccncc12`, the “hERG current change (%, negative = inhibition) at 10uM” value is reported as -1.75%. For `CCOC(=O)c1cccc(NS(=O)(=O)c2cnc[nH]2)c1`, the “hERG current change (%, negative = inhibition) at 10uM” value is given as 17.5%.

`CCc1ccc2c(c1)cc(CN(C(=S)Nc1cccc(C)c1)C1CC1)c1nnnn12`: the “hERG current change (%, negative = inhibition) at 10uM” value came to 4.8%. For `COc1ccc(N2CC(NC(=O)Nc3ccccc3)CC2=O)cc1` (stereo not drawn), the “hERG current change (%, negative = inhibition) at 10uM” value was -25.1%. Consider `COc1ccc(S(=O)(=O)NC2(C(F)(F)F)NC(=O)N(CCc3ccc(OC)c(OC)c3)C2=O)cc1` (stereo not drawn), for which the “hERG current change (%, negative = inhibition) at 10uM” value stood at 14.5%. Regarding `CC(C)(O)C#Cc1ccc(C(=O)N2CCC(C(N)=O)(N3CCCCC3)CC2)cc1`, the “hERG current change (%, negative = inhibition) at 10uM” value is on record as -4.64%. To `O=C(COC(=O)c1ccccc1NCCO)NCCC1=CCCCC1` belongs -27.7%. Turning to `Cc1cc(C(=O)Nc2ccon2)cs1`, the “hERG current change (%, negative = inhibition) at 10uM” value is -15.3%.

Consider `O=C(Nc1ccncc1)C1CCN(S(=O)(=O)c2c(Cl)cccc2Cl)CC1`, for which the “hERG current change (%, negative = inhibition) at 10uM” value was -29.2%.

These data come from paper PMC4336329 (PLoS ONE, 2015).
